Publication PMC4336329 (PLoS ONE, 2015)
Hit rate of the full screen: of about 310,000 compounds, about 2,200 (0.71%) showed an effect of 50% or more. The effect is printed as a negative number. This is one part of the list.

Target: human ether-à-go-go-related gene (hERG) potassium channel (human, UniProt Q12809)
Test: primary screen, population patch clamp on CHO cells stably expressing hERG

Sequence of human ether-à-go-go-related gene (hERG) potassium channel (Q12809 whole entry, looked up): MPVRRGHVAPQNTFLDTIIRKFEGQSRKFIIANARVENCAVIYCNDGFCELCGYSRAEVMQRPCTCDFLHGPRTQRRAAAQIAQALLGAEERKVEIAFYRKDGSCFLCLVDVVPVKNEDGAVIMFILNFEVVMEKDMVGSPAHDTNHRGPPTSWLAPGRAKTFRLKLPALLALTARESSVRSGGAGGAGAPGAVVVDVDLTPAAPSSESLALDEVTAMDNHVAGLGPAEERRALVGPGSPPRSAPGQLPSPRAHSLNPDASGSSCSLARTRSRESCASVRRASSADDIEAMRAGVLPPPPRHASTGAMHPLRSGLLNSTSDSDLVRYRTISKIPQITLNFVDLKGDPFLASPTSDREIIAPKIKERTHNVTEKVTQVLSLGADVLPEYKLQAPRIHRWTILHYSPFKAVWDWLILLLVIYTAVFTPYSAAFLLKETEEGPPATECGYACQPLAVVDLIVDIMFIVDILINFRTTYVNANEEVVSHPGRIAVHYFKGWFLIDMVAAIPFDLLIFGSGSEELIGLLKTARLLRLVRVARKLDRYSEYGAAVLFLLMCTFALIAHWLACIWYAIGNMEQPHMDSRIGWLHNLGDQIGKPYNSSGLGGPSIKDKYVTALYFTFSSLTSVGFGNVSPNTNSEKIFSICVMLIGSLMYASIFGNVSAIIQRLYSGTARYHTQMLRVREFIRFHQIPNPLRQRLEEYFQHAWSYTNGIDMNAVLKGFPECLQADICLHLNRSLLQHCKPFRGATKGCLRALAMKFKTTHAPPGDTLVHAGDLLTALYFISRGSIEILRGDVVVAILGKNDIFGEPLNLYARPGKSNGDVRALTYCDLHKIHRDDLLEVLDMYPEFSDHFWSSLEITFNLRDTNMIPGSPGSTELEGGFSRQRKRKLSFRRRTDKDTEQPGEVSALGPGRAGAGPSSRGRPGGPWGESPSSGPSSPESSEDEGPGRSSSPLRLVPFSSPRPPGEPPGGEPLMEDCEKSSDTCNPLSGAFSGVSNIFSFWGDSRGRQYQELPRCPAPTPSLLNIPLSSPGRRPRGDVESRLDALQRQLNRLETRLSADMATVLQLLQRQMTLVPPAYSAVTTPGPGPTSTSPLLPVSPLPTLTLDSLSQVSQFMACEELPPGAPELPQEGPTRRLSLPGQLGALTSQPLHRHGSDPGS

Row | Structure (SMILES) | hERG current change (%, negative = inhibition) at 1uM
1 | CCN(c1ccccc1)S(=O)(=O)c1ccc(C(=O)Nc2ncccc2C)cc1 | 11.1%
2 | CCCn1c(=O)c(C(=O)NCc2ccccc2)c(O)c2ccccc21 | 7.02%
3 | COc1ccc(-c2nc3cc([N+](=O)[O-])ccc3o2)cc1OC | 12.5%
4 | COCCNC(=O)c1noc2c1CCc1cc(OC)ccc1-2 | -5.73%
5 | CCOc1cccc(C(=O)Nc2nc(-c3ccc(S(=O)(=O)N4CCOCC4)cc3)cs2)c1 | 2.54%
6 | O=C(COc1cccc(Cl)c1)NCc1ccccc1 | 18%
7 | COc1ccc(N2C(=O)CC(N3CCN(c4ccc(S(=O)(=O)N5CCCC5)cc4)CC3)C2=O)cc1 (centres unmarked) | 4.15%
8 | CCOc1ccccc1NC(=O)c1ccc2c(c1)C(=O)N(C(C)(C)C)C2=O | 12.4%
9 | CC(C)Oc1ccc(CC(=O)NNC(=S)Nc2ccc(Br)cc2)cc1 | 3.6%
10 | Cc1cc(C)n2cc(CSCc3ccco3)nc2n1 | 11%
11 | CC12CC3CC(C)(C1)CC(C(=O)Nc1nn[nH]n1)(C3)C2 | 5.81%
12 | O=C1CCCCC(=O)c2ccccc2N1 | 25.3%
13 | CCN(CC(=O)N1CCOCC1)S(=O)(=O)c1ccc(C)cc1 | 8.47%
14 | CC(=O)C1=C(O)C(=O)N(c2cccnc2)C1c1ccc([N+](=O)[O-])cc1 (centres unmarked) | 5.27%
15 | CCOC(=O)N1CCC2(CC1)C(C#N)=C(N)OC1=C2C(=O)CC(C)C1 (centres unmarked) | 6.09%
16 | CC(=O)NC12CC3CC(C1)CC(C(=O)NCC(=O)Nc1c(C)cc(C)cc1C)(C3)C2 | 12%
17 | O=C(NCC1CCCCC1)c1cc(Br)ccc1Cl | 11.8%
18 | COCc1c(C#N)c(NCCc2ccc(F)cc2)nc(C)c1[N+](=O)[O-] | 6.46%
19 | CCN(CC(=O)Nc1ccc(S(=O)(=O)N2CCCCC2)cc1)Cc1ccccc1 | 3.56%
20 | COc1ccc(F)cc1C(=O)C1CCCN(Cc2ccc(O)cc2)C1 (centres unmarked) | -25.1%
21 | O=C(OCCc1cc2ccccc2c(=O)o1)c1ccco1 | 5.27%
22 | S=C(NCc1ccco1)N1CCN(c2ccccn2)CC1 | 18.5%

Row | Structure (SMILES) | hERG current change (%, negative = inhibition) at 1uM
23 | Nc1nncn1C(=O)c1c(Cl)cccc1Cl | 1.14%
24 | Cc1cccc(OCC(O)CN2CCN(CCN3C(=O)c4cccc5cccc(c45)C3=O)CC2)c1C (centres unmarked) | 15.1%
25 | Cn1c(SCC(N)=O)nnc1-c1ccccc1 | 1.72%
26 | Nc1nnn(CC(=O)N/N=C/c2ccc(Cl)cc2Cl)n1 | 11.7%
27 | CCCSc1nnc(CSc2ncccn2)n1C | 13%
28 | Cc1ccc(S(=O)(=O)n2nc(-c3ccco3)nc2SCc2ccccc2)cc1 | 7.34%
29 | COc1cccc(C(=O)CC(=O)C(=O)Nc2ccc(C)cc2Cl)c1 | 9.95%
30 | COc1cccc(/C=C2\SC(=O)N(CCC(=O)NNC(=O)c3ccccc3Cl)C2=O)c1 | 7.45%
31 | Cc1cc2nc(SCC(=O)N(C)C)c3c(c2cc1C)CCCC3 | 0.811%
32 | Cc1ccc(NS(=O)(=O)c2ccc(NC(=O)c3ccc(-c4ccccc4)cc3)cc2)c(C)c1 | 7.25%
33 | O=C(NCCC1=CCCCC1)c1ccc(Cl)c(S(=O)(=O)N2CCCCC2)c1 | 4.72%
34 | COc1ccc(C(=O)Oc2cc(OC)cc(OC)c2C(C)=O)cc1 | 12.1%
35 | O=C(CSc1nnc(CNc2ccc(F)cc2)o1)N1CCN(C(=O)c2ccco2)CC1 | -14.2%
36 | CC/C(=N\NC(=O)CSCc1ccc(Cl)cc1)c1ccc2c(c1)OCCO2 | 12%
37 | COc1ccc(CNCC(=O)Nc2ccccc2-n2cccc2)cc1.Cl | 6.51%
38 | COCCOC(=O)c1c(C)oc2ccc(OC(=O)c3c(OC)cccc3OC)cc12 | 6.81%
39 | CCOC(=O)C1CCN(S(=O)(=O)c2ccc3c(c2)CC(=O)N3C)CC1 | 8.89%
40 | O=C(Nc1ccc(Cl)cc1C(=O)O)c1ccc2c(c1)C(=O)N(Cc1ccco1)C2=O | 18.7%
41 | Cc1cc(S(=O)(=O)N(Cc2cccs2)Cc2ccccc2F)ccc1-n1cnnn1 | 5.44%
42 | S=C(Nc1cccc(Cl)c1Cl)N1CCC2(CC1)OCCO2 | 11.3%
43 | COc1ccc(S(=O)(=O)N2CCOCC2)cc1NC(=O)c1sccc1C | 9.57%
44 | COc1ccc(S(=O)(=O)N2CCCC(C(=O)NCc3ccccc3)C2)cc1 (centres unmarked) | 23.7%
